Some test systems named below: CCRF-CEM leukemia; IGROV1 ovarian; HCT-116 colon; HT29 colon; K-562 leukemia; MCF7 breast; MOLT-4 leukemia; NCI-H226 lung; OVCAR-8 ovarian; P388 leukemia; RPMI-8226 leukemia; SN12K1 renal; SW-620 colon; 786-0 renal; A549 NSCLC; HL-60(TB) leukemia; HOP-62 NSCLC; LOX IMVI melanoma; NCI/ADR-RES ovarian; OVCAR-3 ovarian; PC-3 prostate; SF-295 CNS; HOP-18 NSCLC; SNB-75 CNS; SR leukemia; HCT-15 colon; KM12 colon; M14 melanoma; MALME-3M melanoma; MDA-MB-231 breast; SK-MEL-5 melanoma; SK-OV-3 ovarian; SNB-19 CNS; SNB-78 CNS; UACC-62 melanoma; XF 498 CNS.

What all share (assay): NCI tumour cell line growth inhibition, 48 h

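Results reflect a 48-hour exposure of cells in 96-well plates to compound at five concentrations. GI50 marks 50% less growth.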 The source holds more than one record for some entries. They are shown here; other results are not. An entry can have further records. For some assays here: A record mostly stands for its own series of concentrations, which the source does not state; some values may only mark the edge of a range. For some assays here: Results that share an entry are repeats (runs, samples, wells, individuals or studies). What stands in brackets tells the records apart. A, B and so on number the origins entry by entry.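 TGI is the concentration that stops growth completely.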

Turning to `CCCC(=O)Nc1cc(C(=O)N2C[C@@H]3C[C@]34C2=CC(=O)c2[nH]cc(C)c24)n(COC)c1`, the TGI in the assay with CCRF-CEM leukemia is 2.5 µM and 26.8 µM; with IGROV1 ovarian it was 32.7 µM and 3.24 µM.

In the case of `[Cl][Pt+2][Cl].[NH-]C1CCCCC1[NH-]` (centres undefined), the GI50 is 10.4 µM [sample A, mean of 2 tests] and 2.03 µM [sample B, mean of 2 tests] and 238 nM [sample C, mean of 2 tests] in the assay on HCT-116 colon; 7.01 µM [sample A, mean of 2 tests] and 975 nM [sample B, mean of 2 tests] and 265 nM [sample C, mean of 2 tests] in the assay on HT29 colon; 15.4 µM [sample A, 1 test] and 3.85 µM [sample B, 1 test] and 419 nM [sample C, 1 test] with K-562 leukemia; 3.21 µM [sample A, mean of 2 tests] and 3.43 µM [sample B, 1 test] and 317 nM [sample C, mean of 2 tests] in the assay with MCF7 breast; 3.15 µM [sample A, mean of 2 tests] and 708 nM [sample B, mean of 2 tests] and 138 nM [sample C, mean of 2 tests] with MOLT-4 leukemia; 9.45 µM [sample A, 1 test] and 1.77 µM [sample B, 1 test] and 95.4 nM [sample C, 1 test] in the assay on NCI-H226 lung. Besides, the GI50 in the assay on OVCAR-8 ovarian is 11.3 µM [sample A, mean of 2 tests] and 2.02 µM [sample B, mean of 2 tests] and 328 nM [sample C, mean of 2 tests]; with P388 leukemia, 635 nM [sample A, mean of 2 tests] and 158 nM [sample B, mean of 2 tests] and 42.9 nM [sample C, mean of 2 tests]; in the assay on RPMI-8226 leukemia it was 2.51 µM [sample A, mean of 2 tests] and 702 nM [sample B, mean of 2 tests] and 71.3 nM [sample C, mean of 2 tests]; with SN12K1 renal, > 53.3 µM [sample A, mean of 2 tests] and 18.2 µM [sample B, mean of 2 tests] and 1.76 µM [sample C, mean of 2 tests]; with SW-620 colon, 2.75 µM [sample A, mean of 2 tests] and 689 nM [sample B, mean of 2 tests] and 103 nM [sample C, mean of 2 tests]. Moreover, the TGI in the assay with NCI-H226 lung was 50.8 µM [sample A, 1 test] and 35.1 µM [sample B, 1 test] and 3.68 µM [sample C, 1 test].

Turning to `COc1cc(/C=C2\CCC/C(=C\c3cc(OC)c(O)c(OC)c3)C2=O)cc(OC)c1O`, the TGI with 786-0 renal was 3.91 µM and > 100 µM; with A549 NSCLC, 5.67 µM and > 100 µM; in the assay on HCT-116 colon, 2.88 µM and > 100 µM; in the assay with HL-60(TB) leukemia, 75 µM and 4.75 µM; with HOP-62 NSCLC, 4.34 µM and > 100 µM; in the assay with LOX IMVI melanoma it was 75 µM and 3.78 µM. Moreover, the TGI in the assay with NCI/ADR-RES ovarian was 75 µM and 5.87 µM; in the assay on OVCAR-3 ovarian, 2.59 µM and > 100 µM; in the assay on PC-3 prostate it was 75 µM and 7.14 µM; in the assay with SF-295 CNS, 5.38 µM and > 100 µM.

Consider `CC[C@@]1(O)C[C@H](OC2CC(N(C)C)C(OC3CC(O)C(OC4CCC(=O)C(C)O4)C(C)O3)C(C)O2)c2c(cc3c(c2O)C(=O)c2c(O)cccc2C3=O)[C@H]1C(=O)OC` (some centres undefined), for which the GI50 in the assay with HOP-18 NSCLC is 132 nM [mean of 2 tests] and 7.67 nM [mean of 3 tests]; in the assay on SR leukemia it was 22.5 nM [1 test] and 3.12 nM [mean of 3 tests] and 1.6 nM [mean of 6 tests]. The TGI in the assay with SNB-75 CNS is 9.68 nM [mean of 4 tests] and 256 nM [mean of 6 tests] and 61.4 nM [mean of 7 tests]; in the assay with SR leukemia, 225 µM [1 test] and 8.34 nM [mean of 3 tests] and 109 nM [mean of 6 tests].

As to `COc1cc(/C=C\c2ccc(C)cc2)cc(OC)c1OC`, the TGI in the assay with HCT-116 colon was 253 nM and > 100 µM; with HCT-15 colon, 417 nM and > 57.2 µM; in the assay with HT29 colon, 135 nM and 6.82 µM; in the assay with KM12 colon, 787 nM and > 59.2 µM; with M14 melanoma, 72.9 nM and > 60.7 µM; with MALME-3M melanoma, 455 nM and 55.2 µM. The TGI with MDA-MB-231 breast is 246 nM and > 100 µM; in the assay on OVCAR-8 ovarian, 176 nM and 11.6 µM; in the assay on SF-295 CNS it was 81 µM [1 test] and 49 nM [mean of 2 tests]; in the assay on SK-MEL-5 melanoma, 697 nM and 12.2 µM; with SK-OV-3 ovarian, 257 nM and > 100 µM; with SNB-19 CNS it was 385 nM and > 100 µM. The TGI was 82.4 µM [1 test] and 310 nM [mean of 2 tests] in the assay on SNB-75 CNS; 0.291 nM and > 100 µM in the assay with SNB-78 CNS; 259 nM and > 85.6 µM with UACC-62 melanoma; 55.8 nM and 27.5 µM with XF 498 CNS.

Source of the values: PubChem BioAssay (NCI).
